Data from the supplement of paper PMC4967469.

Tests used:
Experiment in all cases: Viability of human cancer cell lines after 72 h of drug (GDSC screen)
[1] = compound: CC(=O)c1c(C)c2cnc(Nc3ccc(N4CCNCC4)cn3)nc2n(C2CCCC2)c1=O [PD-0332991]
Protocol: (§1)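 Human cancer cell lines in 384-well plates, medium with 10% serum, drug for 72 h over a 256-fold dose range (nine 2-fold or five 4-fold steps up to the top dose). Adherent lines were fixed and stained with the nucleic acid dye Syto60, suspension lines read with resazurin; signal relative to control wells, capped at 0 and 100%. One two-parameter sigmoid per drug and line, fitted in a mixed model over all curves with the slope shared within a line.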

[2] = compound: COc1cc2c(Nc3ccc(NC(=O)c4ccccc4)cc3)ncnc2cc1OCCCN1CCOCC1 [ZM-447439]; conditions: top dose inferred
Protocol: as §1

[3] = compound: Cn1cnc2c(F)c(Nc3ccc(Br)cc3Cl)c(C(=O)NOCCO)cc21 [AZD6244]; conditions: screen: GDSC drug entry 1062
Protocol: as §1

Cell Line: MHH-NB-11 (neuroblastoma, adherent, top dose 4 µM)
- AUC [1]: 0.435
- IC50 [1]: 0.163 µM
- AUC [2]: 0.865
- IC50 [2]: > 4 µM
- AUC [3]: 0.898
- IC50 [3]: > 4 µM

Cell Line: MHH-PREB-1 (B-cell leukaemia, suspension, top dose 4 µM)
- AUC [1]: 0.536
- IC50 [1]: 0.311 µM
- AUC [2]: 0.949
- IC50 [2]: > 4 µM
- AUC [3]: 0.985
- IC50 [3]: > 4 µM

Cell Line: MIA-PaCa-2 (pancreas, adherent, top dose 4 µM)
- AUC [1]: 0.699
- IC50 [1]: 0.967 µM
- AUC [2]: 0.788
- IC50 [2]: 1.94 µM
- AUC [3]: 0.943
- IC50 [3]: > 4 µM

Cell Line: MKN7 (stomach, adherent, top dose 4 µM)
- AUC [1]: 0.981
- IC50 [1]: > 4 µM
- AUC [2]: 0.928
- IC50 [2]: > 4 µM
- AUC [3]: 0.839
- IC50 [3]: > 4 µM

Cell Line: MKN28 (stomach, adherent, top dose 4 µM)
- AUC [1]: 0.875
- IC50 [1]: > 4 µM
- AUC [2]: 0.985
- IC50 [2]: > 4 µM
- AUC [3]: 0.987
- IC50 [3]: > 4 µM

Cell Line: ML-2 (acute myeloid leukaemia, suspension, top dose 4 µM)
- AUC [1]: 0.974
- IC50 [1]: > 4 µM
- AUC [2]: 0.93
- IC50 [2]: > 4 µM
- AUC [3]: 0.986
- IC50 [3]: > 4 µM

Cell Line: MLMA (hairy cell leukaemia, semi-adherent, top dose 4 µM)
- AUC [1]: 0.829
- IC50 [1]: 2.53 µM
- AUC [2]: 0.954
- IC50 [2]: > 4 µM
- AUC [3]: 0.969
- IC50 [3]: > 4 µM

Cell Line: MM1S (myeloma, suspension, top dose 4 µM)
- AUC [1]: 0.863
- IC50 [1]: 3.18 µM
- AUC [2]: 0.96
- IC50 [2]: > 4 µM
- AUC [3]: 0.959
- IC50 [3]: > 4 µM

Cell Line: MN-60 (B-cell leukaemia, suspension, top dose 4 µM)
- AUC [1]: 0.987
- IC50 [1]: > 4 µM
- AUC [2]: 0.988
- IC50 [2]: > 4 µM
- AUC [3]: 0.986
- IC50 [3]: > 4 µM

Cell Line: MOG-G-CCM (glioma, adherent, top dose 4 µM)
- AUC [1]: 0.981
- IC50 [1]: > 4 µM
- AUC [2]: 0.958
- IC50 [2]: > 4 µM
- AUC [3]: 0.979
- IC50 [3]: > 4 µM

Cell Line: MOG-G-UVW (glioma, adherent, top dose 4 µM)
- AUC [1]: 0.671
- IC50 [1]: 0.738 µM
- AUC [2]: 0.805
- IC50 [2]: 1.96 µM
- AUC [3]: 0.948
- IC50 [3]: > 4 µM

Cell Line: MOLM-16 (acute myeloid leukaemia, suspension, top dose 4 µM)
- AUC [1]: 0.739
- IC50 [1]: 1.08 µM
- AUC [2]: 0.756
- IC50 [2]: 1.22 µM
- AUC [3]: 0.931
- IC50 [3]: > 4 µM

Cell Line: MOLP-8 (myeloma, suspension, top dose 4 µM)
- AUC [1]: 0.92
- IC50 [1]: > 4 µM
- AUC [2]: 0.964
- IC50 [2]: > 4 µM
- AUC [3]: 0.965
- IC50 [3]: > 4 µM

Cell Line: MOLT-4 (lymphoblastic leukaemia, suspension, top dose 4 µM)
- AUC [1]: 0.28
- IC50 [1]: 0.0687 µM
- AUC [2]: 0.754
- IC50 [2]: 1.13 µM
- AUC [3]: 0.958
- IC50 [3]: > 4 µM

Cell Line: MOLT-13 (T-cell lymphoblastic leukaemia, suspension, top dose 4 µM)
- AUC [1]: 0.373
- IC50 [1]: 0.117 µM
- AUC [2]: 0.716
- IC50 [2]: 0.932 µM
- AUC [3]: 0.513
- IC50 [3]: 0.269 µM

Cell Line: MOLT-16 (T-cell lymphoblastic leukaemia, suspension, top dose 4 µM)
- AUC [1]: 0.488
- IC50 [1]: 0.234 µM
- AUC [2]: 0.653
- IC50 [2]: 0.601 µM
- AUC [3]: 0.939
- IC50 [3]: > 4 µM

Cell Line: MONO-MAC-6 (acute myeloid leukaemia, suspension, top dose 4 µM)
- AUC [1]: 0.891
- IC50 [1]: > 4 µM
- AUC [2]: 0.772
- IC50 [2]: 1.63 µM
- AUC [3]: 0.969
- IC50 [3]: > 4 µM

Cell Line: MPP-89 (mesothelioma, adherent, top dose 4 µM)
- AUC [1]: 0.924
- IC50 [1]: > 4 µM
- AUC [2]: 0.981
- IC50 [2]: > 4 µM
- AUC [3]: 0.961
- IC50 [3]: > 4 µM

Cell Line: MRK-nu-1 (breast, suspension, top dose 4 µM)
- AUC [1]: 0.969
- IC50 [1]: > 4 µM
- AUC [2]: 0.962
- IC50 [2]: > 4 µM
- AUC [3]: 0.97
- IC50 [3]: > 4 µM

Cell Line: MS-1 (small cell lung carcinoma, suspension, top dose 4 µM)
- AUC [1]: 0.991
- IC50 [1]: > 4 µM
- AUC [2]: 0.991
- IC50 [2]: > 4 µM
- AUC [3]: 0.991
- IC50 [3]: > 4 µM

Cell Line: MSTO-211H (mesothelioma, adherent, top dose 4 µM)
- AUC [1]: 0.742
- IC50 [1]: 1.14 µM
- AUC [2]: 0.88
- IC50 [2]: 3.47 µM
- AUC [3]: 0.891
- IC50 [3]: 3.88 µM

Cell Line: MY-M12 (leukaemia, suspension, top dose 4 µM)
- AUC [1]: 0.78
- IC50 [1]: 1.87 µM
- AUC [2]: 0.829
- IC50 [2]: 2.95 µM
- AUC [3]: 0.98
- IC50 [3]: > 4 µM

Cell Line: MZ1-PC (pancreas, adherent, top dose 4 µM)
- AUC [1]: 0.735
- IC50 [1]: 1.4 µM
- AUC [2]: 0.896
- IC50 [2]: > 4 µM
- AUC [3]: 0.811
- IC50 [3]: 2.79 µM

Cell Line: MZ2-MEL (melanoma, adherent, top dose 4 µM)
- AUC [1]: 0.426
- IC50 [1]: 0.151 µM
- AUC [2]: 0.821
- IC50 [2]: 2.87 µM
- AUC [3]: 0.962
- IC50 [3]: > 4 µM

Cell Line: MZ7-mel (melanoma, adherent, top dose 4 µM)
- AUC [1]: 0.963
- IC50 [1]: > 4 µM
- AUC [2]: 0.987
- IC50 [2]: > 4 µM
- AUC [3]: 0.777
- IC50 [3]: 1.67 µM

Cell Line: Mo-T (hairy cell leukaemia, suspension, top dose 4 µM)
- AUC [1]: 0.452
- IC50 [1]: 0.185 µM
- AUC [2]: 0.934
- IC50 [2]: > 4 µM
- AUC [3]: 0.983
- IC50 [3]: > 4 µM

Cell Line: NALM-6 (B-cell leukaemia, suspension, top dose 4 µM)
- AUC [1]: 0.832
- IC50 [1]: 2.01 µM
- AUC [2]: 0.644
- IC50 [2]: 0.58 µM
- AUC [3]: 0.973
- IC50 [3]: > 4 µM

Cell Line: NAMALWA (Burkitt lymphoma, suspension, top dose 4 µM)
- AUC [1]: 0.954
- IC50 [1]: > 4 µM
- AUC [2]: 0.973
- IC50 [2]: > 4 µM
- AUC [3]: 0.981
- IC50 [3]: > 4 µM

Cell Line: NB1 (neuroblastoma, semi-adherent, top dose 4 µM)
- AUC [1]: 0.836
- IC50 [1]: 3.04 µM
- AUC [2]: 0.897
- IC50 [2]: > 4 µM
- AUC [3]: 0.984
- IC50 [3]: > 4 µM

Cell Line: NB5 (neuroblastoma, adherent, top dose 4 µM)
- AUC [1]: 0.843
- IC50 [1]: 2.9 µM
- AUC [2]: 0.816
- IC50 [2]: 2.25 µM
- AUC [3]: 0.808
- IC50 [3]: 2.1 µM

Lines with a small IC50 respond at low doses; fits outside the tested doses are given as limits. AUC is the area under the same curve over the 256-fold range up to the top dose, as a fraction; it is 1 without any effect and falls as sensitivity rises. For part of these data: The top dose, if marked as inferred, was calculated from the reported fits. For part of these data: Drugs with an entry number were screened twice under separate entries, and the two screens often disagree.
